Structures are written as SMILES. Among all 150,000 compounds or so, about 540 (0.36%) showed an effect of 50% or more. The list shows a part of the results.

This experiment deals with Plasmodium falciparum. In words: Primary screen in NF54 nanoGlo assay, in single point, at 2uM, 72h; a lower Z score goes with more inhibition. The format is functional, Erythrocyte. The following applies: timepoint 72 hour.
As usually defined, the % Inhibition is the change of the read-out against control, counted positive when it falls. Consider `O=C(c1cc2ccccc2[nH]1)N1CC(N2CCCC2)C1`, for which the “% Inhibition” value is -10% and the Z score amounted to 1.9.

With `CC(C)CNC(=O)CN(C)C(=O)c1cc2n(n1)CCCN(Cc1ccc(F)cc1)C2=O`, the “% Inhibition” value is reported as -5% and the Z score is 1.04.

As for `CN(C)c1cccc(CNCc2cnc(N3CCOCC3)nc2)c1`, the “% Inhibition” value is recorded as -2% and the Z score was 0.27.

In the case of `O=C1N(CC2CCC2)CCC[C@@]12CCN(c1nc3ccccc3s1)C2`, the “% Inhibition” value is given as -4% and the Z score was 0.63.

Regarding `CC[C@@](C)(CC(=O)OC)NC(=O)Nc1ccccc1OC`, the “% Inhibition” value is given as 0% and the Z score came to 0.05.

For `CC(C)(C)C(=O)NCc1nccnc1-c1ccco1`, the “% Inhibition” value was determined as 13% and the Z score is listed as -1.73.

On to `COCc1ncc(C)n1[C@H]1CCN(C(=O)CCCc2c[nH]c3ccccc23)C1`, for which the “% Inhibition” value is recorded as -6% and the Z score is given as 0.74.

As to `NC(=O)N1CCC[C@H](C(=O)N(CC#Cc2ccccc2)C2CCCC2)C1`, the “% Inhibition” value was -25% and the Z score was 5.37.

As for `COc1ccc(N2C3=[N+](CCCCC3)C[C@]2(O)c2ccc(OC)cc2)cc1`, the “% Inhibition” value amounted to 0% and the Z score is -0.08.

Regarding `Cc1noc(NC(=O)c2cccc(S(C)(=O)=O)c2)c1-c1ccccc1`, the “% Inhibition” value is recorded as 10% and the Z score is given as -0.96.

Take `Cn1cc(C(C)(C)C(=O)N2CC(C)(CO)C2)cn1`: the “% Inhibition” value is on record as -7% and the Z score was 0.93.

As to `CCn1ncnc1CNC1CC(C)(c2ccccc2)C1` (stereo not drawn), the “% Inhibition” value is on record as -11% and the Z score is 1.42.

For the molecule `CC(=O)c1ccc(S(=O)(=O)N2CCN(c3cnsn3)CC2)cc1`, the “% Inhibition” value is -13% and the Z score turned out to be 1.66.

Take `O=C1CCC(Nc2ccc(Br)cn2)C(C2CC2)N1` (stereo not drawn): the “% Inhibition” value stood at 36% and the Z score is -1.37.

For the molecule `Cc1ccc(NC(=O)[C@H]2C[C@H](C(=O)O)CN(C3Cc4ccccc4C3)C2)cn1`, the “% Inhibition” value is reported as -7% and the Z score is reported as 1.45.

`COc1cc([C@@H](CC(=O)NCc2ccccc2)c2c[nH]c3cccc(OC)c23)cc2c1OCCO2`: the “% Inhibition” value worked out at 22% and the Z score is on record as -3.66.

Consider `Cc1n[nH]c([C@@H]2CCN(C(=O)c3cn[nH]c3)CCN2Cc2ccccc2)n1`, for which the “% Inhibition” value was -17% and the Z score is 2.5.

Regarding `O=C(Nc1cccn2cnnc12)c1ccsc1`, the “% Inhibition” value is -6% and the Z score amounted to 0.85.

Regarding `Cn1nccc1S(=O)(=O)N1CCNC(=O)C[C@H]1C(F)(F)F`, the “% Inhibition” value is given as 7% and the Z score is -1.05.

For the molecule `Cc1ccnc(N2CCN([C@@H](C)c3ccc(S(=O)(=O)N(C)C)cc3)CC2)c1`, the “% Inhibition” value is on record as -5% and the Z score stood at 0.85.

As to `CCN[C@@H](C(N)=O)c1ccc(F)c(F)c1`, the “% Inhibition” value is on record as -2% and the Z score is reported as 0.28.

As to `Cn1ccc2c(-c3ccc(C(=O)N4CCOCC4)o3)ccnc21`, the “% Inhibition” value is given as -9% and the Z score turned out to be 1.01.

In the case of `O=C(c1ccc(-c2cnn(-c3nnn[nH]3)c2)cc1)N1CCCCCCC1`, the “% Inhibition” value is listed as -13% and the Z score was found to be 1.84.

For `COc1cc2c(cc1NC(=O)N1CCC[C@H](C(=O)N3CCCC3)C1)OCO2`, the “% Inhibition” value is -11% and the Z score stood at 1.15.

In the case of `CCc1nccn1CCCNc1nc2cc(C)ccc2o1`, the “% Inhibition” value is listed as -9% and the Z score is listed as 1.81.

In the case of `CN(Cc1ccc(Br)o1)C(=O)c1ncccc1O`, the “% Inhibition” value was -12% and the Z score was 1.53.

Turning to `CCCC(=O)N1c2ccccc2C(=C2SC(C(=O)OCC)=C(C(=O)OCC)S2)C(=S)C1(C)C`, the “% Inhibition” value is on record as -6% and the Z score is 0.75.

For `Cc1ncc(-c2nc(-c3cccc(F)c3)nn2C(C)(C)C)c(=O)[nH]1`, the “% Inhibition” value is recorded as -19% and the Z score was 2.08.

`Clc1ccc(CN2CCCN(c3nccn4cnnc34)CC2)cc1`: the “% Inhibition” value is -13% and the Z score came out at 1.72.

Take `O=C(Nc1ccc2c(c1)OCO2)c1oc2ccccc2c1NC(=O)c1c(F)cccc1F`: the “% Inhibition” value is -8% and the Z score is recorded as 1.59.

Turning to `CN(C(=O)NCc1ccc(N2CCc3ccccc3C2)nc1)C1CC1`, the “% Inhibition” value was -8% and the Z score stood at 0.89.

As for `O=C(NCc1cc[nH]n1)NCc1nccn1CCCc1ccccc1`, the “% Inhibition” value was -7% and the Z score stood at 1.1.

As to `CCS(=O)(=O)C[C@H](C)N(C)c1cc(C)nc(C)n1`, the “% Inhibition” value is given as -1% and the Z score is reported as 0.18.

Turning to `CCc1cc(N2CC[C@H](N3CCCCC3)C2)ncn1`, the “% Inhibition” value is given as 5% and the Z score is recorded as -0.74.

Take `CCn1cnnc1CNC1CCN([C@@H](C)Cc2ccccc2)CC1`: the “% Inhibition” value is reported as -11% and the Z score was 1.57.

Turning to `O=C(Nc1nc2c(s1)CN(S(=O)(=O)c1c(F)cccc1F)CC2)c1ccoc1`, the “% Inhibition” value is 0% and the Z score was -0.01.

In the case of `CCN1CCN(S(=O)(=O)CC2CCCC2)CC1=O`, the “% Inhibition” value is listed as -19% and the Z score is listed as 1.88.

For `CCC(C)N(CC(=O)N1CCc2sccc2C1COc1ccc(C(C)C)cc1)C(=O)c1ccc(C)cc1` (stereo not drawn), the “% Inhibition” value amounted to 1% and the Z score is given as -0.18.

With `Cc1cccc(OC/C=C/Cn2ccnc2)c1C`, the “% Inhibition” value is reported as -7% and the Z score came to 0.72.

On to `Cc1ncsc1C(=O)NCc1ccccc1CN1CCOCC1`, for which the “% Inhibition” value is -4% and the Z score was determined as 0.48.

`Nc1nc(N2CCCCCC2)ncc1C(=O)NCc1ccccc1F`: the “% Inhibition” value is 5% and the Z score was -0.59.

With `NC(=O)Nc1ccc(Cl)c(OC(F)F)c1`, the “% Inhibition” value was -6% and the Z score is reported as 0.69.

Turning to `O=C(Nc1nsc(Cc2ccc(F)cc2)n1)[C@@H]1CCCO1`, the “% Inhibition” value was -13% and the Z score is 2.47.

Consider `Cc1cc(=O)c(C(=O)N(C)CC2(CO)CCC2)c(C)[nH]1`, for which the “% Inhibition” value was -7% and the Z score is recorded as 1.34.

For the molecule `CCCc1cc(C(=O)NCc2nnc(CC)s2)no1`, the “% Inhibition” value was -10% and the Z score worked out at 1.61.

As to `CCN(C(=O)c1cc(C)nc2onc(C)c12)c1cccc(Br)c1`, the “% Inhibition” value is reported as -6% and the Z score was 0.65.

As to `O=C(COc1ccccc1)Nc1ccc2c(c1)C(O)=Nc1cccnc1O2`, the “% Inhibition” value is listed as 46% and the Z score is -10.48.

For `CC1OCCC1S(=O)(=O)NCC1(C2CCC2)CCC1` (stereo not drawn), the “% Inhibition” value turned out to be 9% and the Z score is -1.2.

Turning to `CCN(CC)S(=O)(=O)c1cc(C)c(C)c(NC(=O)c2ccc(F)c(S(=O)(=O)N3CCC3)c2)c1`, the “% Inhibition” value is listed as 0% and the Z score is given as -0.05.

Take `Cc1ccc(OCCCO[C@H]2CCCc3c[nH]nc32)cc1C`: the “% Inhibition” value is -6% and the Z score is recorded as 0.54.

Regarding `O=C(c1cn(-c2cc(N3CCOCC3)ncn2)cn1)N1CCOCC1`, the “% Inhibition” value is recorded as -11% and the Z score was found to be 1.19.

Turning to `CCc1nnc2cc(N3CCN(C(=O)Nc4cccc(F)c4)CC3)cnn12`, the “% Inhibition” value is listed as 0% and the Z score stood at 0.02.

For the molecule `COc1ccc([C@H]2CC(=O)Nc3onc(C)c32)cc1Cn1cccn1`, the “% Inhibition” value is reported as -12% and the Z score worked out at 2.03.

Turning to `COCCCN1C(=O)CC[C@@H]2CN(C(=O)Cc3ccc(F)cc3C)CC[C@@H]21`, the “% Inhibition” value was -13% and the Z score was found to be 2.52.

The values above are taken from ChEMBL document CHEMBL4888484, “Replenishing the malaria drug discovery pipeline: Screening and hit evaluation of the MMV Hit Generation Library 1 (HGL1) against asexual blood stage Plasmodium falciparum ,using a nano luciferase reporter read-out” (2022).
